# The other results are listed elsewhere or left out.
# B1: Ficolin B (Rattus norvegicus), P57756 (protein)
# chain: MVLGSAALFVLSLCVTELTLHAADTCPEVKVLDLEGSNKLTILQGCPGLPGALGPKGEAGAKGDRGESGLPGHPGKAGPTGPKGDRGEKGVRGEKGDTGPSQSCATGPRTCKELLTRGYFLTGWYTIYLPDCRPLTVLCDMDTDGGGWTVFQRRIDGTVDFFRDWTSYKQGFGSQLGEFWLGNDNIHALTTQGTNELRVDLADFDGNHDFAKYSSFQIQGEAEKYKLILGNFLGGGAGDSLTSQNNMLFSTKDQDNDQGSSNCAVRYHGAWWYSDCHTSNLNGLYLRGLHKSYANGVNWKSWKGYNYSYKVSEMKVRLI
# Tests used:
# Experiment in all cases: glycan array binding signal (z-score within array); higher = stronger binding
# Details in all cases: glycan notation: IUPAC condensed, linker removed
# Man(b1-4)GlcNAc = biological target: Man(b1-4)GlcNAc
# Summary of the method: (§1)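 From the Consortium for Functional Glycomics database, 3228 arrays were curated, keeping only those whose protein sequence was available. Binding is given as a within-array Z-score averaged across arrays sharing a protein sequence and across linkers. Negative Z-scores can be read as non-binding.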
# Neu5Ac(a2-3)Gal = biological target: Neu5Ac(a2-3)Gal
# Summary of the method: as §1
# [1] = biological target: Neu5Ac(a2-3)Gal(b1-3)GalNAc
# Summary of the method: as §1
# [2] = biological target: Neu5Ac(a2-3)Gal(b1-3)GalNAc(b1-3)Gal(a1-4)Gal(b1-4)Glc
# Summary of the method: as §1
# [3] = biological target: Neu5Ac(a2-3)Gal(b1-3)GalNAc(b1-3)Gal(b1-4)GlcNAc
# Summary of the method: as §1
# [4] = biological target: Neu5Ac(a2-3)Gal(b1-3)GalNAc(b1-4)[Neu5Ac(a2-3)]Gal(b1-4)Glc
# Summary of the method: as §1
# [5] = biological target: Neu5Ac(a2-3)Gal(b1-3)GalNAc6S
# Summary of the method: as §1
# [6] = biological target: Neu5Ac(a2-3)Gal(b1-3)GlcNAc
# Summary of the method: as §1
# [7] = biological target: Neu5Ac(a2-3)Gal(b1-3)GlcNAc(b1-3)Gal(b1-3)GlcNAc
# Summary of the method: as §1
# [8] = biological target: Neu5Ac(a2-3)Gal(b1-3)GlcNAc6S
# Summary of the method: as §1
# [9] = biological target: Neu5Ac(a2-3)Gal(b1-3)[Fuc(a1-4)]GlcNAc
# Summary of the method: as §1
# [10] = biological target: Neu5Ac(a2-3)Gal(b1-3)[Fuc(a1-4)]GlcNAc(b1-3)Gal(b1-3)[Fuc(a1-4)]GlcNAc
# Summary of the method: as §1
# [11] = biological target: Neu5Ac(a2-3)Gal(b1-3)[Fuc(a1-4)]GlcNAc(b1-3)Gal(b1-4)[Fuc(a1-3)]GlcNAc
# Summary of the method: as §1
# [12] = biological target: Neu5Ac(a2-3)Gal(b1-3)[Neu5Ac(a2-3)Gal(b1-4)]GlcNAc
# Summary of the method: as §1
# [13] = biological target: Neu5Ac(a2-3)Gal(b1-3)[Neu5Ac(a2-6)]GalNAc
# Summary of the method: as §1
# Neu5Ac(a2-3)Gal(b1-4)Glc = biological target: Neu5Ac(a2-3)Gal(b1-4)Glc
# Summary of the method: as §1
# [14] = biological target: Neu5Ac(a2-3)Gal(b1-4)GlcNAc
# Summary of the method: as §1
# [15] = biological target: Neu5Ac(a2-3)Gal(b1-4)GlcNAc(b1-2)Man(a1-3)[GlcNAc(b1-2)Man(b1-4)GlcNAc(b1-2)Man(a1-6)]Man(b1-4)GlcNAc(b1-4)GlcNAc
# Summary of the method: as §1
# [16] = biological target: Neu5Ac(a2-3)Gal(b1-4)GlcNAc(b1-2)Man(a1-3)[Neu5Ac(a2-6)Gal(b1-4)GlcNAc(b1-2)Man(a1-6)]Man(b1-4)GlcNAc(b1-4)GlcNAc
# Summary of the method: as §1
# [17] = biological target: Neu5Ac(a2-3)Gal(b1-4)GlcNAc(b1-3)Gal(b1-3)GlcNAc
# Summary of the method: as §1
# [18] = biological target: Neu5Ac(a2-3)Gal(b1-4)GlcNAc(b1-3)Gal(b1-4)GlcNAc
# Summary of the method: as §1
# [19] = biological target: Neu5Ac(a2-3)Gal(b1-4)GlcNAc(b1-3)Gal(b1-4)GlcNAc(b1-3)Gal(b1-4)GlcNAc
# Summary of the method: as §1
# [20] = biological target: Neu5Ac(a2-3)Gal(b1-4)GlcNAc(b1-3)Gal(b1-4)[Fuc(a1-3)]GlcNAc
# Summary of the method: as §1
# [21] = biological target: Neu5Ac(a2-3)Gal(b1-4)GlcNAc(b1-3)GalNAc
# Summary of the method: as §1
# [22] = biological target: Neu5Ac(a2-3)Gal(b1-4)GlcNAc(b1-6)[Gal(b1-3)]GalNAc
# Summary of the method: as §1
# [23] = biological target: Neu5Ac(a2-3)Gal(b1-4)GlcNAc(b1-6)[Neu5Ac(a2-3)Gal(b1-3)]GalNAc
# Summary of the method: as §1
# [24] = biological target: Neu5Ac(a2-3)Gal(b1-4)GlcNAc6S
# Summary of the method: as §1
# [25] = biological target: Neu5Ac(a2-3)Gal(b1-4)[Fuc(a1-3)]GlcNAc
# Summary of the method: as §1
# [26] = biological target: Neu5Ac(a2-3)Gal(b1-4)[Fuc(a1-3)]GlcNAc(b1-3)Gal
# Summary of the method: as §1
# [27] = biological target: Neu5Ac(a2-3)Gal(b1-4)[Fuc(a1-3)]GlcNAc(b1-3)Gal(b1-4)GlcNAc
# Summary of the method: as §1
# [28] = biological target: Neu5Ac(a2-3)Gal(b1-4)[Fuc(a1-3)]GlcNAc(b1-3)Gal(b1-4)[Fuc(a1-3)]GlcNAc(b1-3)Gal(b1-4)[Fuc(a1-3)]GlcNAc
# Summary of the method: as §1
# [29] = biological target: Neu5Ac(a2-3)Gal(b1-4)[Fuc(a1-3)]GlcNAc(b1-6)[Gal(b1-3)]GalNAc
# Summary of the method: as §1
# [30] = biological target: Neu5Ac(a2-3)Gal(b1-4)[Fuc(a1-3)]GlcNAc(b1-6)[Neu5Ac(a2-3)Gal(b1-3)]GalNAc
# Summary of the method: as §1
# [31] = biological target: Neu5Ac(a2-3)Gal(b1-4)[Fuc(a1-3)]GlcNAc6S
# Summary of the method: as §1
# [32] = biological target: Neu5Ac(a2-3)Gal6S(b1-4)GlcNAc
# Summary of the method: as §1
# [33] = biological target: Neu5Ac(a2-3)Gal6S(b1-4)[Fuc(a1-3)]GlcNAc
# Summary of the method: as §1
# Neu5Ac(a2-3)GalNAc = biological target: Neu5Ac(a2-3)GalNAc
# Summary of the method: as §1
# [34] = biological target: Neu5Ac(a2-3)GalNAc(b1-4)GlcNAc
# Summary of the method: as §1
# [35] = biological target: Neu5Ac(a2-3)[GalNAc(b1-4)]Gal(b1-4)Glc
# Summary of the method: as §1
# [36] = biological target: Neu5Ac(a2-3)[GalNAc(b1-4)]Gal(b1-4)GlcNAc
# Summary of the method: as §1
# [37] = biological target: Neu5Ac(a2-3)[Neu5Ac(a2-6)]GalNAc
# Summary of the method: as §1
# Neu5Ac(a2-6)Gal = biological target: Neu5Ac(a2-6)Gal
# Summary of the method: as §1
binder,measurement,setting,value
B1,glycan array binding signal (z-score),Man(b1-4)GlcNAc,-0.113
same,glycan array binding signal (z-score),Neu5Ac(a2-3)Gal,-0.193
same,glycan array binding signal (z-score),[1],-0.176
same,glycan array binding signal (z-score),[2],-0.152
same,glycan array binding signal (z-score),[3],-0.217
same,glycan array binding signal (z-score),[4],1.4
same,glycan array binding signal (z-score),[5],-0.212
same,glycan array binding signal (z-score),[6],0.043
same,glycan array binding signal (z-score),[7],-0.071
same,glycan array binding signal (z-score),[8],-0.232
same,glycan array binding signal (z-score),[9],-0.213
same,glycan array binding signal (z-score),[10],-0.015
same,glycan array binding signal (z-score),[11],-0.086
same,glycan array binding signal (z-score),[12],3.17
same,glycan array binding signal (z-score),[13],0.062
same,glycan array binding signal (z-score),Neu5Ac(a2-3)Gal(b1-4)Glc,-0.175
same,glycan array binding signal (z-score),[14],-0.089
same,glycan array binding signal (z-score),[15],5.65
same,glycan array binding signal (z-score),[16],0.356
same,glycan array binding signal (z-score),[17],-0.149
same,glycan array binding signal (z-score),[18],1.04
same,glycan array binding signal (z-score),[19],-0.216
same,glycan array binding signal (z-score),[20],-0.114
same,glycan array binding signal (z-score),[21],-0.192
same,glycan array binding signal (z-score),[22],-0.202
same,glycan array binding signal (z-score),[23],0.865
same,glycan array binding signal (z-score),[24],-0.202
same,glycan array binding signal (z-score),[25],-0.212
same,glycan array binding signal (z-score),[26],0.01
same,glycan array binding signal (z-score),[27],-0.12
same,glycan array binding signal (z-score),[28],-0.218
same,glycan array binding signal (z-score),[29],-0.086
same,glycan array binding signal (z-score),[30],0.019
same,glycan array binding signal (z-score),[31],-0.102
same,glycan array binding signal (z-score),[32],-0.203
same,glycan array binding signal (z-score),[33],-0.221
same,glycan array binding signal (z-score),Neu5Ac(a2-3)GalNAc,-0.2
same,glycan array binding signal (z-score),[34],-0.227
same,glycan array binding signal (z-score),[35],-0.205
same,glycan array binding signal (z-score),[36],0.026
same,glycan array binding signal (z-score),[37],-0.082
same,glycan array binding signal (z-score),Neu5Ac(a2-6)Gal,-0.22

# From the supplement of paper PMC8728848
